# Laboratory results: PubChem BioAssay AID540317 (National Center for Advancing Translational Sciences (NCATS), 2011)
# The whole screen tested about 390,000 compounds, of which about 2,200 (0.56%) were called active. The inconclusive results got no clear call from the source; some entries with a clear call stand among them for comparison. Calls come from the whole dose curve; as a rule, active = well fitted inhibition curve with a large enough effect; inconclusive = small, poorly fitted or top-dose-only effect; inactive = no such curve, though single readings can be large or run the other way. A potency beside an inconclusive call is a rough fit, not a confirmed value.
# Molecular target: Chromobox protein homolog 1 (Homo sapiens) (UniProt P83916)
# Assay: HTS for Inhibitors of HP1-beta Chromodomain Interactions with Methylated Histone Tails; note: nearly all actives have a fitted effect of over 70% in size
# Settings: AlphaScreen HP1-beta / biotin-H3K9me3 peptide binding; series mostly up to 114 µM
# Outline: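 Compound inhibition of the preformed complex between 50 nM HP1-beta and 50 nM biotinylated H3K9me3 peptide was read by AlphaScreen. Buffer was PBS pH 7.4 with 0.01% Tween-20. Incubations ran 30 min at room temperature, with 10 ug/mL donor/acceptor beads.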
# Potency is the fitted concentration of half-maximal effect; tags give direction and shape of the fitted curve.
# Chain of UniProt P83916 (P83916 whole entry, looked up): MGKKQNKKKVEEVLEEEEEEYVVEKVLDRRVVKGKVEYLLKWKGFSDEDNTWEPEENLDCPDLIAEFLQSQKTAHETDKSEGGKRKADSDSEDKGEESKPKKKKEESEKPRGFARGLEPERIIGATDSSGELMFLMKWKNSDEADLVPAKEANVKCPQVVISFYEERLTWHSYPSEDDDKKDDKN
row,SMILES,Potency
1,Cc1c(C(=O)N2CCC(C)CC2)c(S(=O)(=O)NCc2ccccc2)c(C)n1C,inactive
2,Cc1ccc(NCc2ccc(O)c3ncccc23)cc1,"inconclusive: 56.2 µM [inhibitor, partial curve, poor fit]"
3,c1csc(CN2CCOCC2)c1,"inconclusive: 39.8 µM [inhibitor, partial curve]"
4,CCC(=O)Nc1cccc(-c2nnc(SCC(=O)c3ccccc3)n2C)c1,"inconclusive: 28.2 µM [inhibitor, single point]"
5,O=C(c1ccccc1)c1coc2c1C(=O)c1ccccc1C2=O,"inconclusive: 50.1 µM [inhibitor, partial curve]"
6,O=C(NC(=S)Nc1ccccc1N1CCCCC1)c1ccc(F)cc1,"inconclusive: 44.7 µM [inhibitor, partial curve]"
7,CCOc1ccccc1NS(=O)(=O)c1c(C)nc2sccn2c1=O,inactive
8,O=C(NCC(c1ccco1)N1CCc2ccccc21)c1ccccc1Cl (centres undefined),"inconclusive: 70.8 µM [inhibitor, partial curve]"
9,O=C(Cc1cccc(NC(=O)C2CCCN(C(=O)C3CCCC3)C2)c1)Nc1cccc(C(=O)N2CCOCC2)c1 (centres undefined),inactive
10,O=C(Nc1ccccc1C(=O)O)C1=NN=CC1,"inconclusive: 79.4 µM [inhibitor, partial curve, poor fit]"
11,CCN1CCN(CC(=O)Nc2nc3ccc(OC)cc3s2)CC1,"inconclusive: 28.2 µM [inhibitor, partial curve, poor fit]"
12,C=CC[n+]1c(-c2ccc(C)cc2)csc1NNC(=O)Nc1ccccc1,"inconclusive: 39.8 µM [inhibitor, single point]"
13,CC1CCCN(c2ccc(C(=O)NCc3ccco3)cc2[N+](=O)[O-])C1 (centres undefined),"inconclusive: 56.2 µM [inhibitor, single point]"
14,CN(C)c1ccc(C=C2C=Cc3ccccc32)cc1,"inconclusive: 50.1 µM [inhibitor, partial curve, poor fit]"
15,CC1CCCN(CCCOc2ccccc2-c2ccccc2)C1 (centres undefined),"inconclusive: 35.5 µM [inhibitor, partial curve]"
16,CN(Cc1cccc(F)c1)CC(O)COCc1ccccc1Cl (centres undefined),"inconclusive: 39.8 µM [inhibitor, partial curve]"
17,Brc1cccc(-c2nnc3sc(CN4CCC5(CC4)OCCO5)cn23)c1,inactive
18,CCOc1ccc(CNC(=O)CCC(=O)N2CC3CCCN3c3ccccc32)cc1 (centres undefined),"inconclusive: 70.8 µM [inhibitor, partial curve, poor fit]"
19,Cc1ccc(C)c2sc(NC(=O)c3ccc(N4CCCCC4)c([N+](=O)[O-])c3)nc12,"inconclusive: 10 µM [inhibitor, full curve]"
20,CCCN(CC(=O)Nc1ccccc1OC)C(=O)CCNC(=O)c1ccccc1OC,inactive
21,COC(=O)COc1ccc(C2C(C(=O)OC)=C(C)NC3=C2C(=O)c2ccccc23)cc1OC (centres undefined),"inconclusive: 20 µM [inhibitor, partial curve, poor fit]"
22,CCSc1nnc(NC(=O)c2ccc3ccccc3n2)s1,inactive

row,SMILES,Potency
1,CC(C)C(=O)N1CCN(c2ccccc2NC(=S)NC(=O)c2cccs2)CC1,"inconclusive: 20 µM [inhibitor, full curve]"
2,CC(C)c1ccc(C2Sc3ccccc3NC3=C2C(=O)c2ccccc23)cc1 (centres undefined),"inconclusive: 14.1 µM [inhibitor, full curve]"
3,Cc1ccc2c(c1)cc1c(=O)n(Cc3cccc(Cl)c3)nc(C)n12,inactive
4,CCc1ccccc1NC(=O)Cn1c(=O)n(Cc2ccco2)c(=O)c2ccccc21,inactive
5,CCN(CCNC(=O)C1CCN(Cc2nc(-c3ccc(Cl)cc3)oc2C)CC1)c1ccccc1,"inconclusive: 35.5 µM [inhibitor, single point]"
6,O=C(NCCc1c[nH]c2ccccc12)c1ccc(S(=O)(=O)NCc2ccco2)cc1,"inconclusive: 31.6 µM [inhibitor, partial curve]"
7,COc1ccc(NC(=S)NC(NC(=O)C(C)C)C(Cl)(Cl)Cl)c([N+](=O)[O-])c1 (centres undefined),"inconclusive: 39.8 µM [inhibitor, partial curve, poor fit]"
8,COc1cc(/C=C/c2sc3ccccc3[n+]2CCCS(=O)(=O)[O-])ccc1O,active: 31.6 µM
9,COc1cc(C)cc(C(=O)C=Cc2ccccc2)c1O,"inconclusive: 28.2 µM [inhibitor, single point]"
10,CCC(NC(C)C)C(O)c1ccc(O)c2[nH]c(=O)ccc12 (centres undefined),inactive
11,N#Cc1nc(COc2ccc(Cl)cc2Cl)oc1N1CCN(c2ccccc2)CC1,inactive
12,Nc1cccc2[nH]c(C(F)(F)F)nc12,"inconclusive: 35.5 µM [inhibitor, partial curve, poor fit]"
13,COc1ccccc1CC(NC(C)=O)C(=O)NC1CCN(S(=O)(=O)c2ccc(NC(C)=O)cc2)CC1 (centres undefined),"inconclusive: 89.1 µM [inhibitor, single point]"
14,O=C(O)c1ccc(N/N=C/c2ccc(OC(=O)c3ccccc3Cl)cc2)cc1,"inconclusive: 50.1 µM [inhibitor, partial curve]"
15,O=C(/C=C/c1ccco1)Nc1ccccc1N1CCCCC1,"inconclusive: 50.1 µM [inhibitor, partial curve, poor fit]"
16,C=Cc1ccc(N=Cc2c(O)ccc3ccccc23)cc1,inactive
17,COc1ccc(/C=C2\SC(=S)N(CCCC(=O)Nc3ccccn3)C2=O)cc1OC,"inconclusive: 25.1 µM [inhibitor, partial curve]"
18,CCC(C)NS(=O)(=O)c1ccc(NS(=O)(=O)c2ccc(F)cc2)cc1 (centres undefined),inactive
19,Cc1ccc(OCCOCCOc2cccc3cccnc23)c(Br)c1,"inconclusive: 39.8 µM [inhibitor, single point]"
20,O=C(CCc1ccccc1)N=C1SC2CS(=O)(=O)CC2N1Cc1ccc(F)cc1 (centres undefined),inactive
21,C=CCn1c(-c2ccc(OC)c(OC)c2)cs/c1=N\c1ccccn1,"inconclusive: 70.8 µM [inhibitor, partial curve]"
22,Cc1ccc(OCCC(=O)OCC(=O)N2c3ccccc3NC(=O)C2(C)C)cc1,"inconclusive: 70.8 µM [inhibitor, partial curve, poor fit]"
